Measured values as given in article PMC4336329 (PLoS ONE, 2015).
In all, about 310,000 compounds went through this assay and about 2,200 (0.71%) showed an effect of 50% or more. The effect is printed as a negative number. Some of the results follow.

Biological target: human ether-à-go-go-related gene (hERG) potassium channel (human, UniProt Q12809)
Assay: primary screen, population patch clamp on CHO cells stably expressing hERG

Sequence of human ether-à-go-go-related gene (hERG) potassium channel (Q12809 whole entry, looked up): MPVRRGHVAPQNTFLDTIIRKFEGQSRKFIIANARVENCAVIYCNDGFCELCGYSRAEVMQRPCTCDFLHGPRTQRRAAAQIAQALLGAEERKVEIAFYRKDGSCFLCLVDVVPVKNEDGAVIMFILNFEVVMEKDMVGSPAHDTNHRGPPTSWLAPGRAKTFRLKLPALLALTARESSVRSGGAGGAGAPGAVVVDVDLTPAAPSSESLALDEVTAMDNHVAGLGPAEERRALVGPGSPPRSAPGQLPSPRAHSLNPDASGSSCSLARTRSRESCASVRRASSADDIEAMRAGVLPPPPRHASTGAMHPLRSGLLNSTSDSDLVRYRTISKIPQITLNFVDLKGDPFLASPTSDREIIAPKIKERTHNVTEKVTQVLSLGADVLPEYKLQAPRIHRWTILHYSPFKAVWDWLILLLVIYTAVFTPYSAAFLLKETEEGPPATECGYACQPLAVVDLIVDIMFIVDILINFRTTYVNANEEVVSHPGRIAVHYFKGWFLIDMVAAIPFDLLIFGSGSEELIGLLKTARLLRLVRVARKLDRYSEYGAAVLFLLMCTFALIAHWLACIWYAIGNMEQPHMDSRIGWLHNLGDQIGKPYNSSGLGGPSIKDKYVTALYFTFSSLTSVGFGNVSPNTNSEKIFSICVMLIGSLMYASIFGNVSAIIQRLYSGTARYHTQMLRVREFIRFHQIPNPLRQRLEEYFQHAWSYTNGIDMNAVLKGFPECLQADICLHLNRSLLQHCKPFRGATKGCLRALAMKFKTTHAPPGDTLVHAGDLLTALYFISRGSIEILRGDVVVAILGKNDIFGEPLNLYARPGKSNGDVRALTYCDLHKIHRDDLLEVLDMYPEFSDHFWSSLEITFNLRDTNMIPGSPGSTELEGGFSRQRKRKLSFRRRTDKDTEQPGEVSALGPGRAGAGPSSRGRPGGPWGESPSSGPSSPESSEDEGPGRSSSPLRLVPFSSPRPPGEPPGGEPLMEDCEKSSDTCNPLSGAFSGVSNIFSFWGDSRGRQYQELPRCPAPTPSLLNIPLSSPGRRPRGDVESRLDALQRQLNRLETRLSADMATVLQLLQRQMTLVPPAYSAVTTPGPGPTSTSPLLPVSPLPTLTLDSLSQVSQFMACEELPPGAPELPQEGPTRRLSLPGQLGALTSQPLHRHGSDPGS

Row | SMILES | hERG current change (%, negative = inhibition) at 1uM
1 | O=C(C1=C[C@H](c2coc3ccccc3c2=O)C[C@H](OCCCCO)O1)N1CCN(Cc2ccc3c(c2)OCO3)CC1 | -23%
2 | COCCCn1c(SCC(=O)Nc2nnc(C)s2)nnc1-c1ccoc1C | 11.3%
3 | COc1ccc(N(CC(=O)NCCc2ccc(OC)c(OC)c2)S(=O)(=O)c2ccc(OC)c(OC)c2)cc1 | 10.9%
4 | CCOc1ccc(-n2c(SCC(=O)NCc3ccco3)nc3c(c2=O)SCC3)cc1 | 10.3%
5 | COc1c(S(=O)(=O)N2CCCCC2)ccc2c(S(=O)(=O)N3CCCCC3)cccc12 | -4.5%
6 | COC(=O)c1c(C)[nH]c(C(=O)/C=C/c2ccccc2Cl)c1C | -4.75%
7 | Br.COc1ccc(C2=CSC(/N=C/c3ccc(F)cc3)=NN2)cc1 | 15.4%
8 | CCC1CCCCN1C(=O)c1cc(-c2ccc(Cl)c(Cl)c2)on1 (stereo not shown) | 5.22%
9 | O=C(Cn1ccc([N+](=O)[O-])n1)NCCc1c[nH]c2ccccc12 | 11.8%
10 | Cc1ccc(C(=O)O/N=C/C2=C(Cl)c3ccccc3CC2)cc1 | 12.9%
11 | O=C1NC(=O)C2(COC(c3cccc([N+](=O)[O-])c3)OC2)S1 (stereo not shown) | 16.5%
12 | CC1(C)OC(=O)C(=CNn2cnc3ccccc3c2=O)C(=O)O1 | 14.8%
13 | O=C(NC(=S)Nc1cnc2ccccc2c1)c1ccccc1 | 11%
14 | CCCn1c2ccc(C)cc2c2nnc(SCCN3CCOCC3)nc21 | 19%
15 | CS(C)(=O)=NS(=O)(=O)c1ccc(Cl)cc1 | 3.86%
16 | Cc1cc(C)cc(OCCOc2cccc(C=C3C(=O)NC(=O)NC3=O)c2)c1 | 13.7%
17 | CC(c1ccon1)N(C)Cc1cn[nH]c1-c1ccc(-c2ccccc2)cc1 (stereo not shown) | 9.01%
18 | CN(Cc1nc2ccccc2n1C)S(=O)(=O)c1ccc(F)cc1 | -6.08%
19 | O=S(=O)(c1ccc(C2CCCCC2)cc1)N1CCOCC1 | 2.03%
20 | O=C(NCC1CCCO1)c1ccc[nH]1 (stereo not shown) | 6.43%
21 | O=C1CNC(=O)/C(=C/c2cccs2)N1 | 11.8%
22 | CCN1CCN(c2ccc(NC(C)=O)cc2Cl)CC1 | 10.3%
23 | CCCCn1c(N)c(N(CCOC)C(=O)CCC2CCCCC2)c(=O)[nH]c1=O | 15%
24 | COc1nnc(OC)c2ccccc12 | 9.19%
25 | CS(=O)(=O)NNP(=O)(NNS(C)(=O)=O)NC(=O)c1ccccc1 | -6.06%
